Assay results from PubChem BioAssay AID504332 (National Center for Advancing Translational Sciences (NCATS), 2011).
The campaign covered roughly 350,000 compounds. About 31,000 (8.9%) were called active. The inconclusive results got no clear call from the source; some entries with a clear call stand among them for comparison. Calls come from the whole dose curve; as a rule, active = well fitted inhibition curve with a large enough effect; inconclusive = small, poorly fitted or top-dose-only effect; inactive = no such curve, though single readings can be large or run the other way. Potencies of inconclusive entries are doubtful fits and often do not repeat.

Biological target: Histone-lysine N-methyltransferase EHMT2 (Homo sapiens) (UniProt Q96KQ7)
Chain of UniProt Q96KQ7 (Q96KQ7 whole entry, looked up): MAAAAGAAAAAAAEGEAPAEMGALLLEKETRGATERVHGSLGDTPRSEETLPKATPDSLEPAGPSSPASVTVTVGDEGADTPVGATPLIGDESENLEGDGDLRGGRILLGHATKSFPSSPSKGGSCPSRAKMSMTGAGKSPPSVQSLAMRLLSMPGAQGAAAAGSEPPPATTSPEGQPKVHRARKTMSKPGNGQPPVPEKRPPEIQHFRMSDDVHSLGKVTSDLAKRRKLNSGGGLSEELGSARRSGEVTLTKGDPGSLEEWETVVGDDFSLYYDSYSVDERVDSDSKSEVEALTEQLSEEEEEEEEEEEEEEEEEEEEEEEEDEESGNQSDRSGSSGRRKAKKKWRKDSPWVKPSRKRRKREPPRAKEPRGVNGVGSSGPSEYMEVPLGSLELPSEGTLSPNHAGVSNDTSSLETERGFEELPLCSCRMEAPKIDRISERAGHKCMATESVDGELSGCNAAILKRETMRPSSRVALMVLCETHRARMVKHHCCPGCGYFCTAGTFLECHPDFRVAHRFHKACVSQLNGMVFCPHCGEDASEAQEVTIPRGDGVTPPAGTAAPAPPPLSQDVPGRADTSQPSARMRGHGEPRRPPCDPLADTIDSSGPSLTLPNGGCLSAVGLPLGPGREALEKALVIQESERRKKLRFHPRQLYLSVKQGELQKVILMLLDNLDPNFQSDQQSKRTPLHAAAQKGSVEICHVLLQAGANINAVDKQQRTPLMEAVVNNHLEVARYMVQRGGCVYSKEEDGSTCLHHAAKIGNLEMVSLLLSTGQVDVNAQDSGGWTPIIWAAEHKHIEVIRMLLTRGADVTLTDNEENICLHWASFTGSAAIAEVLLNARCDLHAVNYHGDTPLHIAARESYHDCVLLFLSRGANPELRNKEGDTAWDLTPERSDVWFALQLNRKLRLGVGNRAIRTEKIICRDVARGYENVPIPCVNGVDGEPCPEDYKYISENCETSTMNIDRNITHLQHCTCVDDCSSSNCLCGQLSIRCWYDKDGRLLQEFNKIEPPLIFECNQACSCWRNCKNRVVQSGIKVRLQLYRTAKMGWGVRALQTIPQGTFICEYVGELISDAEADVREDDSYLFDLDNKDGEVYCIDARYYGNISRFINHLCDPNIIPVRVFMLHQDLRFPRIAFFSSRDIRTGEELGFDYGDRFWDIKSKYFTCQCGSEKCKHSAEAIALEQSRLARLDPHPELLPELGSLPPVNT
Experiment: qHTS Assay for Inhibitors of Histone Lysine Methyltransferase G9a; note: nearly all actives have a fitted effect of over 75% in size
Details: G9a H3K9 monomethylation, AlphaScreen, 2 h; activity, negative = inhibition: at 59 µM (top of the series) unless noted
How it was run: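 AlphaScreen detection with an anti-monomethyl H3K9 antibody quantified product after a 2 h room-temperature reaction containing 500 nM biotinylated H3K9 peptide, 20 µM SAM and 20 nM enzyme, which had been preincubated 15 min with compound.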
% is set by controls: 0 for no effect and ±100 for the full control effect; potency is the fitted concentration of half-maximal effect; tags give direction and shape of the fitted curve.

SMILES	Potency	activity, negative = inhibition
O=C1CCCc2c1cc(C(=O)Nc1ccc(Cl)cn1)c(=O)n2-c1ccccc1	inconclusive: 70.8 µM [inhibitor, partial curve, poor fit]	–
Cc1nc(N2N=C3/C(=C/c4ccc(F)cc4)CCCC3C2c2ccc(F)cc2)sc1C(=O)N(C)C (stereo unspecified)	inconclusive: 39.8 µM [inhibitor, single point]	–
O=C(CCc1ccc(S(=O)(=O)N2CCOCC2)cc1)OCc1nc2ccccc2s1	inactive	–
O=C(NCCO)/C(=C\c1ccc([N+](=O)[O-])o1)NC(=O)c1ccccc1	inconclusive: 0.794 µM [inhibitor, full curve, poor fit]	–
O=C(O)c1ccc(CNc2ccccc2C(=O)O)cc1	inconclusive: 44.7 µM [inhibitor, partial curve, poor fit]	–
Cc1cc(-c2nnc3n2N=C(c2ccc(-c4ccccc4)cc2)CS3)n[nH]1	inconclusive: 12.6 µM [inhibitor, partial curve, poor fit]	–
Cc1cc(C)c2c(C)c(C(=O)N3CCC(c4nc5ccccc5s4)CC3)oc2c1	inactive	–
CCCCCCCCN1C(=O)C(O)=C(C(C)=O)C1c1ccccn1 (stereo unspecified)	inconclusive: 31.6 µM [inhibitor, single point]	–
O=C(c1nn2c(C(F)(F)F)cc(-c3ccc(F)cc3)nc2c1Cl)N1CCOCC1	inactive	–
CC(C)NC(=O)COC(=O)c1cccc(NS(=O)(=O)/C=C/c2ccccc2)c1	inconclusive: 2.51 µM [inhibitor, partial curve]	–
COc1ccc(C(=O)CSc2nc3ccccc3n2CC(=O)NC(C)(C)C)cc1	inconclusive: 28.2 µM [inhibitor, single point]	–
CCOc1cc(/C=C2\C(=O)N(CCc3ccc(OC)c(OC)c3)C(C)=C2C(=O)OC)ccc1O	inconclusive: 7.94 µM [inhibitor, full curve, poor fit]	–
CCc1nnc(NS(=O)(=O)c2ccc(NC(=S)NC(=O)c3ccc(OC)cc3)cc2)s1	inconclusive: 12.6 µM [inhibitor, single point]	–
COc1ccc(-n2c(SCC(=O)Nc3cc(C)on3)nc3ccccc3c2=O)cc1Cl	inactive	–
Cc1ccc(CNC(=O)CSc2c3c(nc4ccc(Cl)cc24)CCCC3)o1	inactive	–
Cc1cccc(/N=C/c2c(C)[nH]n(-c3ccccc3)c2=O)n1	inconclusive: 31.6 µM [inhibitor, single point]	–
Cc1ccc(NC(=O)CCC(=O)N2CCOc3ccccc32)c(Cl)c1	inconclusive: 39.8 µM [inhibitor, partial curve, poor fit]	–
CC(=O)Nc1ccc(S(=O)(=O)NCC(=O)OC(C)c2ccccc2Cl)cc1 (stereo unspecified)	inactive	–
Cc1cccc(Nc2nnc(SCC(=O)Nc3ccccc3[N+](=O)[O-])s2)c1	inactive	–
CS(=O)(=O)N1CCN(C(=O)c2csc3ccccc23)CC1	inconclusive: 39.8 µM [inhibitor, partial curve]	–
O=C(CN1CCC(C(=O)c2ccc(Cl)cc2)CC1)NC1CCCC1	inactive	–
O=S(=O)(c1cccc2ccccc12)n1nnc2ccccc21	inconclusive: 25.1 µM [inhibitor, single point]	–
COc1ccc(OC)c(NC(=O)c2cc3ccccc3o2)c1	inactive	–
O=C(Nc1ccc2nc(SCC(=O)N3CCCc4ccccc43)sc2c1)c1ccc(F)cc1	inactive	–

SMILES	Potency	activity, negative = inhibition
COc1ccc2[nH]c(C(=O)N3CCC(CO)(Cc4cccc(C(F)(F)F)c4)CC3)c(C)c2c1	active: 79.4 µM	–
COc1ccccc1C(CNC(=O)c1ccc(-c2ccccc2Cl)o1)N1CCCC1 (stereo unspecified)	–	inactive: 14.1% [at 0.501 µM]
N#CCN=C(c1ccccc1)c1ccccc1	–	inactive: 13.6% [at 0.501 µM]
CCOc1ccc(CNc2ccc(N3CCCC3)cc2)cc1	inconclusive: 1.41 µM [inhibitor, full curve, poor fit]	–
CC(C)(C)OC(=O)NCC(=O)N1CCC(C(=O)O)CC1	inactive	–
COc1ccc(C(=O)NCC23C=CC(O2)C2C(=O)N(Cc4ccccc4)C(=O)C23)cc1 (stereo unspecified)	inconclusive: 10 µM [inhibitor, partial curve, poor fit]	–
CSc1ncc(C(=O)Nc2ccccc2C(=O)c2ccccc2)c(C)n1	inactive	–
Cc1ccc(C)c(OCC(=O)Nc2cccc(C(=O)O)c2)c1C	inconclusive: 79.4 µM [inhibitor, single point]	–
N#Cc1ccccc1NC(=O)CN1CCOCC1	inconclusive: 39.8 µM [inhibitor, partial curve]	–
CCOc1ccc(N(CC(=O)NCC2CCCO2)S(=O)(=O)c2ccc(SC)cc2)cc1 (stereo unspecified)	inconclusive: 15.8 µM [inhibitor, partial curve, poor fit]	–
Cc1occc1C(=O)NNC1=CC(=O)CC(C)(C)C1	inactive	–
COCCOc1cc(N(CC(=O)N(C)C)S(=O)(=O)c2ccccc2)c(Cl)cc1Cl	inconclusive: 89.1 µM [inhibitor, single point]	–
Cc1nc(-c2ccccn2)sc1C(=O)O	inactive	–
COc1ccc(NC(=O)C(CCS(C)(=O)=O)NC(C)=O)cc1 (stereo unspecified)	–	inactive: -28.6% [at 12.7 µM]
N/C(Cc1ccccc1)=N\OC(=O)c1cccc2ccccc12	inactive	–
COc1cc(C(=O)OCC(=O)NCc2ccc(F)cc2)ccc1OCC(C)C	inconclusive: 31.6 µM [inhibitor, partial curve, poor fit]	–
COc1cc(/C=C2/NC(=O)NC2=O)cc(Br)c1OCc1ccccc1	inactive	–
O=C(Nc1nnc(SCc2c(Cl)cccc2Cl)s1)c1cccc([N+](=O)[O-])c1	–	inconclusive: -53.2% [inhibitor]
Cc1cccc(C(=O)Nc2ccc(C(=O)N/N=C/c3ccc(C)o3)cc2)c1	inconclusive: 44.7 µM [inhibitor, partial curve, poor fit]	–
COc1ccc(-c2nnc(NC(=O)C(C)C)s2)c(OC)c1	inconclusive: 89.1 µM [inhibitor, partial curve, poor fit]	–
CCc1cccc(NC(=O)c2nc(-c3ccncc3)no2)c1	inactive	–
O=C(Cn1nc(C(=O)O)c2ccccc2c1=O)Nc1cccc(S(=O)(=O)N2CCCC2)c1	inconclusive: 50.1 µM [inhibitor, partial curve, poor fit]	–
COc1ccc(-c2cc(C(=O)OCc3ccccn3)c3ccccc3n2)cc1	inconclusive: 3.16 µM [inhibitor, full curve, poor fit]	–
CCSc1nnc([C@@H]2CCCN2C(=O)OC(C)(C)C)o1	active: 50.1 µM	–

SMILES	Potency	activity, negative = inhibition
Cc1ccc(-n2c(C)cc(C(=O)CSc3nnc4ccccn34)c2C)cc1	inconclusive: 25.1 µM [inhibitor, single point]	–
CC(Sc1nc2nn(-c3ccccc3)c(=O)c-2c2n1CCCCC2)C(N)=O (stereo unspecified)	inconclusive: 2.82 µM [inhibitor, single point]	–
COc1ccc(CC(=O)NNC(=S)Nc2ccccc2)cc1Br	–	inconclusive: -66% [inhibitor]
Cc1ccc(NCc2cccn2-c2nnc(N3CCC(C(=O)NCCc4ccccc4)CC3)s2)cc1	inactive	–
COc1cccc(CNC(=O)N2CCC(CN3CCC(C)CC3)CC2)c1	inactive	–
Nc1nc(C23CC4CC(CC(Cl)(C4)C2)C3)cs1	inactive	–
CCCc1cc(C(=O)O)c2ccccc2n1	inconclusive: 89.1 µM [inhibitor, single point]	–
O=S(=O)(Nc1cccc(-c2ccc(N3CCCCCC3)nn2)c1)c1ccccc1Cl	inconclusive: 89.1 µM [inhibitor, single point]	–
CC1CCCN(S(=O)(=O)c2ccc(C(=O)Nc3sc4c(c3C(N)=O)CCN(C)C4)cc2)C1 (stereo unspecified)	inactive	–
O=C1C(Cl)=C(N2CCOCC2)C(=O)N1c1cccc(Cl)c1	inconclusive: 39.8 µM [inhibitor, single point]	–
CCn1ccc2cc(S(=O)(=O)N3CCC(C(=O)NCCc4ccc(SC)cc4)CC3)ccc21	inactive	–
Cc1ccc(CN2CCN(/N=C/c3cc(Br)ccc3F)CC2)cc1	active: 56.2 µM	–
COc1ccccc1CNC(=O)COC(=O)Cc1ccc(F)cc1	inactive	–
O=C(CCNS(=O)(=O)c1cccc2nsnc12)NCCC1=CCCCC1	–	inconclusive: -57.1% [inhibitor]
COc1ccc2nc(NC(=O)CSc3nc4ccccc4o3)sc2c1	–	inactive: 23.5% [at 12.7 µM]
CN(C)c1ccc(CNC(=O)CCC(=O)N2Cc3ccccc3Oc3ncccc32)cc1	inconclusive: 8.91 µM [inhibitor, partial curve]	–
COc1ccccc1NC(=O)c1ccccc1NC(=O)c1ccccc1	inactive	–
O=C(CCNS(=O)(=O)c1cccs1)Nc1ccccc1F	inconclusive: 17.8 µM [inhibitor, single point]	–
COc1cc2cc(CNc3ccc(C)cc3)c(=O)n(CC(=O)Nc3ccc(C(C)C)cc3)c2cc1OC	inconclusive: 14.1 µM [inhibitor, partial curve]	–
CC(=O)c1sc(NC(=O)c2cccc(N3C(=O)CCC3=O)c2)nc1-c1ccccc1	inconclusive: 79.4 µM [inhibitor, partial curve, poor fit]	–
Cc1ccc(C2=Nc3ccccc3N=C(c3ccc([N+](=O)[O-])cc3)C2)c(O)c1	inconclusive: 0.158 µM [inhibitor, full curve, poor fit]	–
O=c1cnnc(Nc2cccc(C(F)(F)F)c2)[nH]1	inconclusive: 39.8 µM [inhibitor, partial curve, poor fit]	–
Cc1ccc(NC(=O)CN(C)C(=O)COc2ncnc3ccc(Br)cc23)cc1	inconclusive: 8.91 µM [inhibitor, single point]	–
